Assay results from publication PMC12730228, “Targeted NanoBiT Screening Identifies a Novel Interaction Between SNAPIN and Influenza A Virus M1 Protein” (Biology, 2025).
No constants are given. Whether binding was seen depends on the method and setting. Binding seen in cells or lysates may run through a third protein. Some binding calls cover weakened binding; strength is not graded here. For part of these data: Where a sequence is shown, tags or fusion partners need not be part of it.

Chains of the proteins cited; added tags and fusions are not shown. Residues count along the entry.
UniProt P05777: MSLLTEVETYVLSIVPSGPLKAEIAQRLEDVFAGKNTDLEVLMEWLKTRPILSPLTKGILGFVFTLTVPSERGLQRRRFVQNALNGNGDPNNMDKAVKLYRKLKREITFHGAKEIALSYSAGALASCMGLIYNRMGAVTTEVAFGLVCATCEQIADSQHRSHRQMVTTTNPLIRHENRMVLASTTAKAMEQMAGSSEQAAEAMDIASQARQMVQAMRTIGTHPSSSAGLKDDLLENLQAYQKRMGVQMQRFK
UniProt P05780: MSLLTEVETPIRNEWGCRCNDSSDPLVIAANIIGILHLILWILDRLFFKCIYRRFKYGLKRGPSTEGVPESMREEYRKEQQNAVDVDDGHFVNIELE
UniProt P03470: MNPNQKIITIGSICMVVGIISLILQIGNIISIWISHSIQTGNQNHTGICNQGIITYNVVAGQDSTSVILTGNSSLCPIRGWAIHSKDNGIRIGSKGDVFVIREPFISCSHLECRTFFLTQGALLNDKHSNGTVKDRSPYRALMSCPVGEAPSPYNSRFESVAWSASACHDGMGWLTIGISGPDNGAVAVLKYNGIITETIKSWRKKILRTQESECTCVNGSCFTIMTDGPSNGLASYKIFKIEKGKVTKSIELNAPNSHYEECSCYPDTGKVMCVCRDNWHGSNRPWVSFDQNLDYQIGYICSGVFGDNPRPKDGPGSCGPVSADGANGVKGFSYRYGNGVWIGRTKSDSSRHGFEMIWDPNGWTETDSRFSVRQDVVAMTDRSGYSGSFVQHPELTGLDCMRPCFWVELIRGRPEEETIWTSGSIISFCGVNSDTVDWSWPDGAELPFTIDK
UniProt P15682: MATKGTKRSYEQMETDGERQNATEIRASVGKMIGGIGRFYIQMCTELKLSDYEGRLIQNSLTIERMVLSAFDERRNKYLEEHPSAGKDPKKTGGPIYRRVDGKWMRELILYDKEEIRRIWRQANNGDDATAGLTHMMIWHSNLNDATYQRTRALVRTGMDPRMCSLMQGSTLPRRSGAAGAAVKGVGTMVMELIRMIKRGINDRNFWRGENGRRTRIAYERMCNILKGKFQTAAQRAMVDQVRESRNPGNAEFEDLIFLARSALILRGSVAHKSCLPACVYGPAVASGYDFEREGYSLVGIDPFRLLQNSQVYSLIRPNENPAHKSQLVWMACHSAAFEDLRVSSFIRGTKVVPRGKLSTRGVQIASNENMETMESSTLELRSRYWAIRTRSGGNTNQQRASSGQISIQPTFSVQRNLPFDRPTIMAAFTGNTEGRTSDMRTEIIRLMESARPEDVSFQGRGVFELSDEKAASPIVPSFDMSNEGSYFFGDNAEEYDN
UniProt P03430: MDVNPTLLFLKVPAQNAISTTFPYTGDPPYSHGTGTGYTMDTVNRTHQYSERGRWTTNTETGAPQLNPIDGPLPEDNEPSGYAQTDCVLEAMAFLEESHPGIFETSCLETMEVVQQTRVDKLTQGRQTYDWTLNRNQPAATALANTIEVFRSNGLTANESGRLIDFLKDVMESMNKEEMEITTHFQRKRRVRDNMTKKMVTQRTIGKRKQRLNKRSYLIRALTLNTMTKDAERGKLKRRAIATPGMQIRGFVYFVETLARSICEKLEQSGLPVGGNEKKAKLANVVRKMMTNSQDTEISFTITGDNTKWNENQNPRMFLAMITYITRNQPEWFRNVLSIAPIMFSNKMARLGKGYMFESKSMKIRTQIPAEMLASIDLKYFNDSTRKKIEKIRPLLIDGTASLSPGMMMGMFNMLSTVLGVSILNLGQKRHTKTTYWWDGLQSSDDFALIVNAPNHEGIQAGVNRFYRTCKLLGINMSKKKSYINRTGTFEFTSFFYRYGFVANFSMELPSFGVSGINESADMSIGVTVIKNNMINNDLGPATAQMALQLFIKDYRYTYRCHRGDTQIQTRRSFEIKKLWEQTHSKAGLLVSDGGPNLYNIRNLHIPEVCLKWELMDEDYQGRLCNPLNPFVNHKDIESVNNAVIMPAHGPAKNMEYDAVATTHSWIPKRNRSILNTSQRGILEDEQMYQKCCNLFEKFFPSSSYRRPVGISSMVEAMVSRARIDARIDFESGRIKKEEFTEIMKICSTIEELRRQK
UniProt P03454, residues 18-565: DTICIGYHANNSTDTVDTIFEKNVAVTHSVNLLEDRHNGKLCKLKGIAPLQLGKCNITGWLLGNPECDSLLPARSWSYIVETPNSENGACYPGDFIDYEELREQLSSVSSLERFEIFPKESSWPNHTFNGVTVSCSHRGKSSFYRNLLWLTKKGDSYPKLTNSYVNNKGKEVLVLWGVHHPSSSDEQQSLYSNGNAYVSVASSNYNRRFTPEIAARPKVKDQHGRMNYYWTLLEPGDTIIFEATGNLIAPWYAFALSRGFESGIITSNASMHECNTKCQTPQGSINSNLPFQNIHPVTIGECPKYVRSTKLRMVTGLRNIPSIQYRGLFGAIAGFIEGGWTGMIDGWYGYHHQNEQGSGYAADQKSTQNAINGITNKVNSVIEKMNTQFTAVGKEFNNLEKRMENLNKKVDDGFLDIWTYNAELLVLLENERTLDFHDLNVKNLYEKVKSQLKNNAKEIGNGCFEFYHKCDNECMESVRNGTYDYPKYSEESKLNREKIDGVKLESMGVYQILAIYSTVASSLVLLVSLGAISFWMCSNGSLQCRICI
UniProt P03427: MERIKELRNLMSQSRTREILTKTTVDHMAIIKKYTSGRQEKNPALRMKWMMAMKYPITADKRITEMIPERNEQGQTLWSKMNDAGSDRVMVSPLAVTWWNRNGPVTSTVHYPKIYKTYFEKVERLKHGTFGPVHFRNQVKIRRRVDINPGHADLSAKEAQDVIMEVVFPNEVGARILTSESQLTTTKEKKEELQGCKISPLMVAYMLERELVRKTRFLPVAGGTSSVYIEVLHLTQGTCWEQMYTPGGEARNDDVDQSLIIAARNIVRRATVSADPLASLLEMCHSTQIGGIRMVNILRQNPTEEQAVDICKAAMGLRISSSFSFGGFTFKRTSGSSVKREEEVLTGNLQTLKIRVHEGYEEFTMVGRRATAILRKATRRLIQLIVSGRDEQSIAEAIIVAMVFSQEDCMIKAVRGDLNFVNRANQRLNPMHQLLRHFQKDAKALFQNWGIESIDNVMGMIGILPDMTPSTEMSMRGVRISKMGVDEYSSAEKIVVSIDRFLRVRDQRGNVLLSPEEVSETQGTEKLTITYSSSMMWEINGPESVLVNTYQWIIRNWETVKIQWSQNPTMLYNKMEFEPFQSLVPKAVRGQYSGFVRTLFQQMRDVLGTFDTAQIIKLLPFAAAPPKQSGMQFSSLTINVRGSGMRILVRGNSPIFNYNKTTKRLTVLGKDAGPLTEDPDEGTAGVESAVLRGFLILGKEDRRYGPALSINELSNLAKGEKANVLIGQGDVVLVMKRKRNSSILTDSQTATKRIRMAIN

T1: Flag-SNAPIN (human) (UniProt O95295)
T1 sequence: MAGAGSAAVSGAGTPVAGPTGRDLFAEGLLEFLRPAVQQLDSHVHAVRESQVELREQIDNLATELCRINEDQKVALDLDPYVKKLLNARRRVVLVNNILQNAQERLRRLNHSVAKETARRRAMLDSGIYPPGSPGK

T2: Myc-SNAPIN (human) (UniProt O95295)
T2 sequence: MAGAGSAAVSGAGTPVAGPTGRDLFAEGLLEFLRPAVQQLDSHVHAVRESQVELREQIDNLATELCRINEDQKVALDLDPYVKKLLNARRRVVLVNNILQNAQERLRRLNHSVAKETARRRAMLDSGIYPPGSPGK

T3: SmN-SNAPIN (human) (UniProt O95295)
T3 sequence: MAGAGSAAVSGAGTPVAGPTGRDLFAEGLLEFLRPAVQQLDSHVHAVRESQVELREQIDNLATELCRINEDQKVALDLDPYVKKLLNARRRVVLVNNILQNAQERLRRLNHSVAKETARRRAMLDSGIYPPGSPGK

B1: GST-SNAPIN (natural protein, human, UniProt O95295 1-136, looked up)
chain: MAGAGSAAVSGAGTPVAGPTGRDLFAEGLLEFLRPAVQQLDSHVHAVRESQVELREQIDNLATELCRINEDQKVALDLDPYVKKLLNARRRVVLVNNILQNAQERLRRLNHSVAKETARRRAMLDSGIYPPGSPGK
notes: also called GST-tagged SNAPIN

Experiments:
Flag-SNAPIN (human) = biological target: T1, Flag-SNAPIN (human); test: co-IP
Myc-SNAPIN (human) = biological target: T2, Myc-SNAPIN (human); test: co-IP
SmN-SNAPIN (human) = biological target: T3, SmN-SNAPIN (human); test: split reporter
[1] = biological target: Flag-M1 (influenza A virus A/WSN/33 (H1N1)) (UniProt P05777); test: co-IP

| Molecule | binding (SmN-SNAPIN (human)) | also measured |
| --- | --- | --- |
| M2 protein of WSN virus in infected cells (from UniProt P05780 1-97) |  | binding (Flag-SNAPIN (human)): binds |
| Flag-M1 (from UniProt P05777 1-252) |  | binding (Myc-SNAPIN (human)): binds |
| LgN-NA (from UniProt P03470 1-453) | no binding |  |
| LgN-NP (from UniProt P15682 1-498) | no binding |  |
| LgN-PB1 (from UniProt P03430 1-757) | no binding |  |
| LgN-HA (from UniProt P03454) | no binding |  |
| LgN-PB2 (from UniProt P03427 1-759) | no binding |  |
| M1 protein of WSN virus in infected cells (from UniProt P05777 1-252) |  | binding (Flag-SNAPIN (human)): binds |
| B1 |  | binding [1]: binds |
